Reference: paper PMC4868714
Residue numbers refer to the chain shown, from its start. No constants are given. Whether binding was seen depends on the method and setting. Binding seen in cells or lysates may run through a third protein. Some binding calls cover weakened binding; strength is not graded here. Tags and fused reporters may be left off the sequences shown.

Key:
[1] = molecular target: T1, myc-tagged human TSHZ2 (human) (UniProt Q9NRE2); test: co-IP; HEK293T cells transiently transfected with two tagged expression vectors; immunoprecipitation by the tags, as previously reported (ref. 30)
T1 sequence: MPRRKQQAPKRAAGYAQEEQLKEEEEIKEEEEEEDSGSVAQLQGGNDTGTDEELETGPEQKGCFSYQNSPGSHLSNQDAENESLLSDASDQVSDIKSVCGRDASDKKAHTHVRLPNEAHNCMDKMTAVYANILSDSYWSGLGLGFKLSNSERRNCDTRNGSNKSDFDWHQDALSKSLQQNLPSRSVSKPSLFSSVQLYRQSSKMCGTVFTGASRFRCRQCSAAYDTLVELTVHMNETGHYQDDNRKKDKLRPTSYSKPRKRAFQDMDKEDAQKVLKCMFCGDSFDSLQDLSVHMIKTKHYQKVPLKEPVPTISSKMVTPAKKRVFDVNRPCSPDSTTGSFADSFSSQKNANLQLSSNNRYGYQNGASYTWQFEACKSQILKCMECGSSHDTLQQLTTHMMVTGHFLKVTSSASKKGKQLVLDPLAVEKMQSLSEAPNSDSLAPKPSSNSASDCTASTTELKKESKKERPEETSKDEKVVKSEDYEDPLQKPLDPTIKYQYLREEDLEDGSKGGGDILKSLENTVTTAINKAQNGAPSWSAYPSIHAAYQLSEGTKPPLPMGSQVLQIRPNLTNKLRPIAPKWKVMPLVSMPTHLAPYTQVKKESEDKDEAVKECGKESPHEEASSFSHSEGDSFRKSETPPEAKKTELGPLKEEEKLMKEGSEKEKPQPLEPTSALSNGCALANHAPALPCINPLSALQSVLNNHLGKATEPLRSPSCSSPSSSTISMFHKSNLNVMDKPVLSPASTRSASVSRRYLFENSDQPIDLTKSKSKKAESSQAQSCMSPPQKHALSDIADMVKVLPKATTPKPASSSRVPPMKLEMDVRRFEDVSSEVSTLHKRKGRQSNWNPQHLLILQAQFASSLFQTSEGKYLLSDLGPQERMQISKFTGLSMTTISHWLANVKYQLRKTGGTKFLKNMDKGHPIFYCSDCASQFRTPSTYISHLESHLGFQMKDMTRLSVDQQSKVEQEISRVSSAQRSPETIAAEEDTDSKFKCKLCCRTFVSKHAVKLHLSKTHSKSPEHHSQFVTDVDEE

[2] = molecular target: T2, myc-tagged human TSHZ2 harboring a mutated CtBP-interaction motif (764-PIALT) (human) (UniProt Q9NRE2); test: as above
T2 sequence: T1 sequence with D766A

binding [1]: binds | binding [2]: no binding
Substance: FLAG-tagged human CtBP2 (from UniProt P56545 1-445)
